Article PMC4336329 (PLoS ONE, 2015)
About 14,000 (4.5%) of roughly 310,000 compounds showed an effect of 50% or more. Effects have a minus sign here. The list shows a part of the results.

biological target: human ether-à-go-go-related gene (hERG) potassium channel (human, UniProt Q12809); experiment: primary screen, population patch clamp on CHO cells stably expressing hERG
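Further: peak tail current of the secondary pulse compared with the same well before compound.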

human ether-à-go-go-related gene (hERG) potassium channel, sequence (Q12809 whole entry, looked up): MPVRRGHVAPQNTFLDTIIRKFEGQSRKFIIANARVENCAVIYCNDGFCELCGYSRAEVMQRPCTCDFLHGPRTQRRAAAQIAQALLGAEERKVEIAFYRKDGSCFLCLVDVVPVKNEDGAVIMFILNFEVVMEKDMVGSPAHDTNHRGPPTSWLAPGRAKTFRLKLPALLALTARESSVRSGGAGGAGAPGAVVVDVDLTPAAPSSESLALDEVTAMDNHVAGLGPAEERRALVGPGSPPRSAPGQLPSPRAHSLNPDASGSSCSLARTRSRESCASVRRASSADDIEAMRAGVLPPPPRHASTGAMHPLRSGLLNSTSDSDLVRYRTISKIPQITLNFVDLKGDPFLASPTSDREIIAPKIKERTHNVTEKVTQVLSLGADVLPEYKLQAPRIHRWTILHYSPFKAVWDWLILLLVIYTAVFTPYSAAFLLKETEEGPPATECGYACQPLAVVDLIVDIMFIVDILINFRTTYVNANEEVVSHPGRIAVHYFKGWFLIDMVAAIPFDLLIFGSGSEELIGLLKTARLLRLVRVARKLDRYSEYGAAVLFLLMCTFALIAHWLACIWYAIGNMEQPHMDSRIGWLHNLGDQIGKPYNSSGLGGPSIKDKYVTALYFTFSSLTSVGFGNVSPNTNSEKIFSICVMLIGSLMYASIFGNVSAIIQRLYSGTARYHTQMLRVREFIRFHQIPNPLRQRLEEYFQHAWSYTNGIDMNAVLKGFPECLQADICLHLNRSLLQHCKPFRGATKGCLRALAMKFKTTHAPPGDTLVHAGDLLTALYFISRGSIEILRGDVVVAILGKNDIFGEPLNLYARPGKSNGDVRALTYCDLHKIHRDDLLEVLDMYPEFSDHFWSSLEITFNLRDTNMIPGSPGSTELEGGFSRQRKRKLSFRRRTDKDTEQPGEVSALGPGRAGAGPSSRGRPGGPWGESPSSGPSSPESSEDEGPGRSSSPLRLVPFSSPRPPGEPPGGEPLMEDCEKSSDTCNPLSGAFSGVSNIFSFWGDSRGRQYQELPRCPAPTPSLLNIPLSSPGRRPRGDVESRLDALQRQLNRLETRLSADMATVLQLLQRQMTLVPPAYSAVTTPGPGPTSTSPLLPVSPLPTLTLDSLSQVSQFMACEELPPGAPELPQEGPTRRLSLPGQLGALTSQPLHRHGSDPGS

**Q.** How did the “hERG current change (%, negative = inhibition) at 10uM” value turn out when `O=C(O)C1=C[C@H](c2cccs2)C[C@H](OCCCCO)O1` was run?
**A.** 7.52%

**Q.** Which “hERG current change (%, negative = inhibition) at 10uM” value does the source give for `COc1cc(-c2nn3c(COc4ccccc4)nnc3s2)cc(OC)c1OC` here?
**A.** 14.8%

**Q.** `CCCCCCCCCCNC(=O)CCn1[nH]c(=O)c2ccccc2c1=O` was tested. Which “hERG current change (%, negative = inhibition) at 10uM” value did it give?
**A.** 12.2%

**Q.** With `COc1ccc(S(=O)(=O)NCc2ccccc2)cc1` as the compound, how does the “hERG current change (%, negative = inhibition) at 10uM” value read?
**A.** -6.46%

**Q.** With `Cc1cc(Cl)ccc1OCC(=O)N1C(C)CCCC1C` (stereo not drawn) as the compound, how does the “hERG current change (%, negative = inhibition) at 10uM” value read?
**A.** -6.46%

**Q.** How did the “hERG current change (%, negative = inhibition) at 10uM” value turn out when `COc1ccc(S(=O)(=O)Cc2ccc(C(=O)NCCCN(C)c3ccccc3)o2)cc1` was run?
**A.** -59.4%

**Q.** `O=C(Cn1cc(C(=O)c2cccs2)c2ccccc21)NCC1CCCO1` (stereo not drawn) was tested. Which “hERG current change (%, negative = inhibition) at 10uM” value did it give?
**A.** -2.64%

**Q.** `CCCCOc1ccc(CSC(CC(=O)O)C(=O)O)cc1` (stereo not drawn) was tested. Which “hERG current change (%, negative = inhibition) at 10uM” value did it give?
**A.** 15.9%

**Q.** For `Cc1cc(C)nc(/N=C(\N)c2c(O)[nH]c(=O)[nH]c2=O)n1`, which “hERG current change (%, negative = inhibition) at 10uM” value is on record?
**A.** -1.29%

**Q.** For `CCCCn1c(N)c(N(CCC(C)C)C(=O)COC(=O)c2sccc2C)c(=O)[nH]c1=O`, which “hERG current change (%, negative = inhibition) at 10uM” value is on record?
**A.** -5.53%

**Q.** Which “hERG current change (%, negative = inhibition) at 10uM” value does the source give for `CNc1nc(-c2ccccc2)[n+](-c2ccc(C)cc2)s1.[Br-]` here?
**A.** -19.4%

**Q.** For `CC(C)(C)c1ccc(OCCCNCc2ccccc2)cc1.O=C(O)C(=O)O`, which “hERG current change (%, negative = inhibition) at 10uM” value is on record?
**A.** -19.5%

**Q.** Which “hERG current change (%, negative = inhibition) at 10uM” value does the source give for `CC1CCCC(C)N1C(=O)CSc1nc2ncnc(N)c2[nH]1` (stereo not drawn) here?
**A.** -9.76%

**Q.** Which “hERG current change (%, negative = inhibition) at 10uM” value does the source give for `COc1ccc(S(=O)(=O)Nc2ccccc2C(N)=O)cc1OC` here?
**A.** 10.1%

**Q.** For `COC(=O)CCC(=O)Nc1cccc(Br)c1`, which “hERG current change (%, negative = inhibition) at 10uM” value is on record?
**A.** -0.553%

**Q.** How did the “hERG current change (%, negative = inhibition) at 10uM” value turn out when `CC(=O)C1=C(O)C(=O)N(c2ccc(S(=O)(=O)Nc3nccs3)cc2)C1c1ccc([N+](=O)[O-])cc1` (stereo not drawn) was run?
**A.** 10.6%

**Q.** With `COc1cc(C(=O)OC2CCOC2=O)c([N+](=O)[O-])cc1OC` (stereo not drawn) as the compound, how does the “hERG current change (%, negative = inhibition) at 10uM” value read?
**A.** 1.2%

**Q.** Which “hERG current change (%, negative = inhibition) at 10uM” value does the source give for `CCCCn1c(N)c(N(CCC(C)C)C(=O)CN2C(=O)C3CCCCC3C2=O)c(=O)[nH]c1=O` (stereo not drawn) here?
**A.** 7.21%

**Q.** For `CC(NCc1cccs1)C(=O)NC1CCCCC1.O=C(O)C(=O)O` (stereo not drawn), which “hERG current change (%, negative = inhibition) at 10uM” value is on record?
**A.** 9.91%

**Q.** `COCCn1c(SCC(=O)Nc2ccccc2F)nc2c([nH]c3ccccc32)c1=O` was tested. Which “hERG current change (%, negative = inhibition) at 10uM” value did it give?
**A.** 5.97%

**Q.** Which “hERG current change (%, negative = inhibition) at 10uM” value does the source give for `O=C(Cc1ccccc1)Nc1c(C(=O)N2CCOCC2)cnn1-c1ccccc1` here?
**A.** 12.4%

**Q.** How did the “hERG current change (%, negative = inhibition) at 10uM” value turn out when `COC(=O)c1c(C)[nH]c(C(=O)CSc2nnnn2-c2ccccc2)c1C` was run?
**A.** 13.9%

**Q.** Which “hERG current change (%, negative = inhibition) at 10uM” value does the source give for `CC1=C(C(=O)OCc2ccccc2)C(c2ccccn2)c2c(n(C)c(=O)n(C)c2=O)N1` (stereo not drawn) here?
**A.** -8.91%

**Q.** For `Cc1cccc(C)c1Nc1c(-c2ccccn2)nc2ccccn12`, which “hERG current change (%, negative = inhibition) at 10uM” value is on record?
**A.** -6.5%

**Q.** How did the “hERG current change (%, negative = inhibition) at 10uM” value turn out when `Cc1ccc2nc(N(CCCN(C)C)C(=O)c3ccc(Br)s3)sc2c1.Cl` was run?
**A.** -44.3%

**Q.** For `CCn1c(=O)c(C(=O)NCc2ccc(F)cc2)c(O)c2ccccc21`, which “hERG current change (%, negative = inhibition) at 10uM” value is on record?
**A.** 9.48%

**Q.** `CCN(CC)c1ccc(C=C2C(=O)OC(C)(C(C)(C)C)OC2=O)cc1` (stereo not drawn) was tested. Which “hERG current change (%, negative = inhibition) at 10uM” value did it give?
**A.** -3.06%

**Q.** Which “hERG current change (%, negative = inhibition) at 10uM” value does the source give for `Cc1ccc(C(=O)COC(=O)c2cnccn2)cc1[N+](=O)[O-]` here?
**A.** 10.8%

**Q.** Which “hERG current change (%, negative = inhibition) at 10uM” value does the source give for `Cc1ccc(NC(=O)c2nc[nH]c2C(=O)N2CCN(c3ccccc3)CC2)cc1` here?
**A.** 8.53%

**Q.** For `Cc1ccc(-c2csc(-c3c[nH]c4ccccc34)n2)c(C)c1`, which “hERG current change (%, negative = inhibition) at 10uM” value is on record?
**A.** 3.41%

**Q.** For `CCOC(=O)C1CCN(c2ncnc3c(C)csc23)CC1`, which “hERG current change (%, negative = inhibition) at 10uM” value is on record?
**A.** -2.92%

**Q.** With `CCn1c(COc2ccccc2C)nnc1SCC(=O)Nc1cc(C)on1` as the compound, how does the “hERG current change (%, negative = inhibition) at 10uM” value read?
**A.** -2.84%

**Q.** For `Cc1ccccc1OCC(=O)OC(C)CN1CCN(C)CC1.Cl` (stereo not drawn), which “hERG current change (%, negative = inhibition) at 10uM” value is on record?
**A.** 7.54%

**Q.** For `CC1(c2nnc(Cc3ccccc3)o2)CC(c2ccc([N+](=O)[O-])cc2)=NO1` (stereo not drawn), which “hERG current change (%, negative = inhibition) at 10uM” value is on record?
**A.** -63.2%

**Q.** `CC(C)CC(=O)OCC(=O)Nc1ccccc1Sc1ccccc1` was tested. Which “hERG current change (%, negative = inhibition) at 10uM” value did it give?
**A.** -5.5%

**Q.** With `COc1cc(NC(=O)c2ccc(Cl)cc2)c2ncccc2c1` as the compound, how does the “hERG current change (%, negative = inhibition) at 10uM” value read?
**A.** 17.6%

**Q.** For `CO/N=C/CC(=O)c1ccc(OC)cc1`, which “hERG current change (%, negative = inhibition) at 10uM” value is on record?
**A.** 17.2%

**Q.** With `CC1(C)C(=O)N(OCc2ccccc2)C(C)(C)C(=O)N1OCc1ccccc1` as the compound, how does the “hERG current change (%, negative = inhibition) at 10uM” value read?
**A.** 1.44%

**Q.** With `C=CCC(=O)N1CCCC(CCC(=O)NCc2ccccc2F)C1` (stereo not drawn) as the compound, how does the “hERG current change (%, negative = inhibition) at 10uM” value read?
**A.** 11.4%

**Q.** With `CCCN1CCC(NCc2cn(C)nc2-c2ccc(Oc3ccccc3)cc2)CC1` as the compound, how does the “hERG current change (%, negative = inhibition) at 10uM” value read?
**A.** -66.1%

**Q.** Which “hERG current change (%, negative = inhibition) at 10uM” value does the source give for `COc1ccc(-n2nc(C(N)=O)c(O)cc2=O)cc1` here?
**A.** 26.9%

**Q.** Which “hERG current change (%, negative = inhibition) at 10uM” value does the source give for `CCC(CC)C(=O)Nc1cccc(C(=O)N2CCCCCC2)c1` here?
**A.** -5.69%

**Q.** For `C=CCSC1=C(C#N)C(c2cccc(OC)c2)CC(=O)N1` (stereo not drawn), which “hERG current change (%, negative = inhibition) at 10uM” value is on record?
**A.** -13.2%

**Q.** Which “hERG current change (%, negative = inhibition) at 10uM” value does the source give for `CSc1nc2ccccc2n1Cc1cccc([N+](=O)[O-])c1` here?
**A.** -44.8%

**Q.** With `COc1ccc2c(C)cc(SC3CCOC3=O)nc2c1` (stereo not drawn) as the compound, how does the “hERG current change (%, negative = inhibition) at 10uM” value read?
**A.** -0.712%
